Assay results: the supplement of paper PMC12632987
Whole data set: some 2,300 sequences, median “median log2 fold change of GCK-ALFA target abundance (FLAG IP / Myc IP barcode read proportion)” near 0.095, cut for the lowest 2% near -0.47. This is one part of the list.

B1: LC3A_59_2012 (protein)
chain: REEVREWVEKIYEAYDDVEKFYELVKKAYEELKKKYSDEELLKLVKEEVERLIKEGKDPRKMKAIYESFKAVIEIKDEEKQKEEIRLIILESEIEEIDEE
B2: LC3A_free_8_2543 (protein)
chain: KSQEAVEKVTKLLDEAEEEITKKAKELGKDRLDILDLELLIGELKIEVIELVDESIEKIKEEVKEGMKEIIKKAKEISEELAKIAEKAEKEILEKLEELE
B3: LC3A_3_1536 (protein)
chain: LDEEIAATLAELKAAGKSEETLEAVREAAELLKEKGYDEALKTFLEETRKLIDLPDELVLDFAEEVLNLVKTEDISEEELIKRIKEIARTIRNEAEIIEL
B4: LC3A_127_166 (protein)
chain: EKKKLLEELLKLTEELIKLLDDPNASLEEILEKAKKLLEVAKELLKKDPSAKPILEDAEQLLKTVEQLKKAPPEQQPELREHASMIAEGILIEAESLLLK
B5: LC3A_3_1834 (protein)
chain: LEEEVAALLEELRAAGHSEEALAAVRELFEALREKGYEEALRTAIELLRELKDLPSELTLELAREALRLVEEEDLSEEELTERIKELARLYRNEGEIEEL
B6: LC3A_3_1592 (protein)
chain: MEELVKEALERLKEAGLSEEVLKAAKELLEALAKKGYENAIKTTTELLLEAKDLPAEVLVDTLKEILHIVETKDLNEEEIIKEIEREFRVARLESEIIEL
B7: LC3A_3_1461 (protein)
chain: AEELIKEAKAILKAQGATPETIKAAEALLKALAAKGYEEAMKTVVELLKEMKGVPSEILLATFEELLAYVETEDATEEEVIAKIKEEFAAAKSEAEIIEL
B8: LC3A_3_1664 (protein)
chain: MDELIAATLAWLAAQGRSQETLDAVREAMTALKEKGYDKSLETFAELLRELAHLSDELLLELAKEVLELVKTSDLNEEEMTKEIKEIARTIRNEAEIEEL
B9: LC3A_3_1486 (protein)
chain: MEELLAEAREVLEARGASPEQIEAVLADVRAILELGYEETVRTFIELLKELPDLSPEKIVAAAGTIRDRVEEEDLTEEEAVEYAKRVMNDVAEIEELDEE
B10: LC3A_37_1344 (protein)
chain: MEKWVIVVVANSEEAYEEAKKEAEKEAEAIGAELITKLLPEDATEAELIDAAEELAEKRKEEIRKKTGKEVKSSSIIEVDRDEETGDIVVTKYVLLEILE
B11: LC3A_17_534 (protein)
chain: REELERELRETLEELERLVEKLEEYDPEAAEEFRRRLEEARRLLEEGRLREAAELLERTAEELADRIDSLEWPDEIEKSVLEMEANGVALRAIGLLLRLE
B12: LC3A_17_562 (protein)
chain: SEELREEVERLVEELEKAVKKTSKLDPSAKEELEAKLKEIKELIEKGDLRGALKAAEELADKIADIAEKNEDKHPLEASLLEMEANGLALEATRLLLKLE
B13: LC3A_128_226 (protein)
chain: SEEIKDLLEDLEEALKDLKELATTEELKKLLEEAEKLLKELKELIKKGASIEEIKKKAKELLKTVEEFLKLAEEKGVKNKVALNAAEIDLANAEEELEEI
B14: LC3A_28_760 (protein)
chain: MNIKEEVEAAIKEAKEAKAKGEEKVIRITVPAGATQEDIEIVIEGLEKIAEINKDMKSTSIVIDVEAGVSQENIDKLIDAGEEIEKKYPNITVIFALDED
B15: LC3A_3_1855 (protein)
chain: MEEIIEEALKLLKELGRSEETIEAARKLLEALKERGFEEAAKVLLEELKKLKNVSDEDLLEMFNELLKALEEEDLNEEEAIELIKSEARVLLNAEEIEEL
B16: LC3A_3_1381 (protein)
chain: MEELLERLREILEEQGRSEETIEAALRLLRALLERGFLEAAETVIEKVEESEDLSDENLLWIFEEVLEAVENEDLSEEELIELINELFRVAKSDEEIIEL
B17: LC3A_132_318 (protein)
chain: EEELYRRLREEVERAIEEARENLENQEKVDELAEEVRRLLERAAEEISPEQTAELAREAAERADEVAREAEAAGKENVALTFDGLAVYADALAIRAEEKL
B18: LC3A_3_1748 (protein)
chain: MEERLARVRALLEAQGRSEETIAAALRLVTLLLERGFEEAVETLEELLAEAEDLPDEILLDMLEDILEYVESNDIDEEEAIEKIKEEFSVARSEAEIIEL
B19: LC3A_3_1911 (protein)
chain: AEEALKALREQLKALGHSEEVIAAALAAAKLLLKAGNEEGVKLLAEAAKATAKLPEADQLAFFEDLKAELEALADDPEAQLAAAREFKRLAENAAEIEEI
B20: LC3A_17_535 (protein)
chain: MEELREELEEALRRAEELVERVEEYDPEAAKEFRKKLEEIRKLIEEGKLREAAEKLEELARELADHIESLEWEDPVEQEVLLMEANGIELEAIGILLKLD
B21: LC3A_28_773 (protein)
chain: MDVKENVEAAIAEAKEAVARGEEAVIRIEIPDGSTQEDIDTVIEGLKEIAEITKDMKRTSVVVDVDGGVKQEHLDKLAKAAEEIEEKYPNVTVIIALDEN
B22: LC3A_28_1122 (protein)
chain: SALREAWEKSLAQAKEEAEAGKDVVAEFTATNDMTEEDLEYLLEKIEEAAKYLSEHGQNSILVDLDMPNKPELRDRLIDGVDEIEKKYPSVNIVIALEED
B23: LC3A_free_39_2290 (protein)
chain: SMEELEEAVEEVEELLEEEPEISPEEKETILEAARQSLEVAKAIVEMLKDIKEAGGDVAAAVKRLADLIKAGKAAGLSQEELNAAVIEEAEDLRNLIPID
B24: LC3A_132_286 (protein)
chain: DEEKTKESVEKVKKIAEEAEKNAEDEEKVRKLLEELRKYLEEVEKTESPEVVAATSRTAAEELEKLAEKLEELGKEELALEADSLAIEAESRALRAEEAL
B25: LC3A_28_653 (protein)
chain: EEIEKELEKAIKEAEKAKKKGEPVVVTIKVSGKVNEEQLEKILETLEKIAELLKDIKGSAIIVDLDKDVPQEFEDKLIDKAEELEKKYPNVTVIIALEER
B26: LC3A_3_1558 (protein)
chain: MEEIREETLEELRRAGKSEEVLEAARRAFEALIERGYEEALRTLAEETRELIDLPDELLLAFFEDVLETIETEDLNEEELIEKIREIARITRNEGEIEEL
B27: LC3A_28_674 (protein)
chain: MELRERLEKALKEAEEAAKKGVPTVITVTIPADATEEEVEEAKKKLEEIAEILKDVKGSAIIVDLERGLKEEHRNEIIDKADELDEKYPNVTVIVALEEE
B28: LC3A_3_1560 (protein)
chain: MEEEKKKALEALKEAGKSEEVIKKAKELLEELEEKGYYEAAKEAIEELLELKDASDEILLDFLEEVLNYVKNEDLDEEEVIKKIKELARIAKNESEIIEL
B29: LC3A_28_989 (protein)
chain: SEDQKAADAFLAEAKEAAAAGEATVLVLKVSKTATEEDIEKIVETLKEAAEVLKDVPGAAIVIDLESGVAQEHIDKLADAAEEVEEKYPNVTVILALDED

Target: MAP1LC3A, Q9H492
Experiment: median log2 fold change of GCK-ALFA target abundance (FLAG IP / Myc IP barcode read proportion) (log2 ratio); each designed protein is fused to an ALFA-tag nanobody in HEK293 cells to bring the named protein to FLAG-tagged glucokinase (GCK); Myc marks an untargeted standard; higher = target protein stabilised (more abundant)
Conditions: target protein: 3xFLAG-MCP-GCK-ALFA reporter; HEK293 landing pad (RPLP)
In short: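 HEK293 landing-pad cells received a recombined binder library fused to the ALFA nanobody and were induced with 2 μg mL^−1 doxycycline, then transfected with a plasmid encoding a FLAG-tagged target and a Myc-tagged standard. Lysates were collected after 48 h for anti-FLAG and anti-Myc immunoprecipitation, and the circular RNA barcodes were reverse transcribed, amplified and sequenced. Target abundance for each binder is the median log2 ratio of FLAG to Myc barcode read proportions. Barcodes had to reach a proportion of at least 10^−7 in both replicates, each binder needed at least 3 barcodes per replicate, a pseudocount of 10^−6 was applied, and the two replicates were pooled.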

Binder | median log2 fold change
B1 | 0.156
B2 | 0.25
B3 | 0.295
B4 | 0.2
B5 | 0.236
B6 | 0.2
B7 | 0.292
B8 | 0.303
B9 | 0.164
B10 | -0.00297
B11 | 0.1
B12 | 0.05
B13 | -0.0132
B14 | -0.183
B15 | 0.224
B16 | -0.16
B17 | 0.106
B18 | 0.031
B19 | 0.284
B20 | -0.083
B21 | 0.185
B22 | -0.465
B23 | 0.143
B24 | 0.118
B25 | 0.0797
B26 | 0.133
B27 | 0.153
B28 | 0.272
B29 | -0.0291
